Test results reported in PubChem BioAssay AID1159614 (National Center for Advancing Translational Sciences (NCATS), 2016).
About 65 (0.1%) of roughly 45,000 compounds were called active. The call rests on the fitted dose curve; in most records, active means well fitted activation curve with a large enough effect; inconclusive means small, poorly fitted or top-dose-only effect; inactive means no such curve, though single readings can be large or run the other way. The list shows a part of the results.

Target: Galactocerebrosidase (Homo sapiens) (UniProt P54803)
Assay: A Novel Cell-Based Assay to Identify Small Molecules for B -Galactocerebrosidase; further: 0% is about no effect; nearly all actives have a fitted effect of over 65% in size
Details: 145M-Twi-hGALC-G270D cells (Twitcher mouse brain line with human GALC G270D), HMU-beta-Gal fluorescence, 48 h; series mostly up to 57.5 µM; activation: at the top concentration
Summary of the method: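 Brain-derived Twitcher mouse 145M-Twi cells stably expressing human GALC-G270D or wild-type GALC, treated live, then residual GALC activity read by fluorescence of HMU-b-Gal substrate (0.1 mM final) in citrate-phosphate buffer pH 5.2 with sodium taurocholate. Signal increase indicates enhancement.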

UniProt P54803, sequence (P54803 whole entry, looked up): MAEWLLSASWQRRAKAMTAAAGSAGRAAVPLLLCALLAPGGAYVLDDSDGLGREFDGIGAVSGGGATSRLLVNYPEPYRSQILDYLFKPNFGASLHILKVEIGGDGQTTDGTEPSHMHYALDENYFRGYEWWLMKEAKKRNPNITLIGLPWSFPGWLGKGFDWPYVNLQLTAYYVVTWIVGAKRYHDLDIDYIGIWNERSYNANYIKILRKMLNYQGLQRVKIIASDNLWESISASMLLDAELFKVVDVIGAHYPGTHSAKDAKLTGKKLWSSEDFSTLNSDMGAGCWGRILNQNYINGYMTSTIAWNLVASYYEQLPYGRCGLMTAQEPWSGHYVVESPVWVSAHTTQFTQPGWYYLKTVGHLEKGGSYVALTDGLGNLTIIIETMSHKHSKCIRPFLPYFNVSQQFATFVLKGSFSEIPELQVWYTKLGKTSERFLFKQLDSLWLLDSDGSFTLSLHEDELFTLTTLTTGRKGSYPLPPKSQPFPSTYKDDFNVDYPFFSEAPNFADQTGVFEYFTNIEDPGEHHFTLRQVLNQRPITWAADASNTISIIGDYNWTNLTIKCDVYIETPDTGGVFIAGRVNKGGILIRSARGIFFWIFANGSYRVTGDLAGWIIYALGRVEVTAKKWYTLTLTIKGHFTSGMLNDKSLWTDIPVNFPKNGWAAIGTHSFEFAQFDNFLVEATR

activation, inactive:
Cc1c(C(=O)NCc2ccc(F)cc2)oc2ccc(S(=O)(=O)N3CCCCC3)cc12 -5.45%, Cc1ccc2c(c1)c1c(c(=O)n(-c3cccc(Cl)c3)c(=O)n1CC(=O)NCC1CCCO1)n2C (stereo not given) -8.69%, CCOC(=O)C1CCCN(c2nc3c(S(=O)(=O)c4ccc(CC)cc4)nnn3c3ccsc23)C1 (stereo not given) -10.8%, COc1ccc(NC(=O)[C@H]2O[C@@H]3OC(C)(C)O[C@@H]3[C@H]3OC(C)(C)O[C@H]32)c(OC)c1 -7%, CC(C)CCNC(=O)CN1C(=O)CSc2ccc(S(=O)(=O)N3CCC(C)CC3)cc21 -11.2%, Cc1ccc2nc(-c3cccs3)c(Nc3c(C)cccc3C)n2c1 5.94%, CCOC(=O)Cc1ccc(NC(=O)Nc2c[nH]c(=O)[nH]c2=O)cc1 -2.94%, CCc1cccc(NC(=O)CCc2nc3cccnc3n2Cc2ccc(OC)cc2)c1 -6.17%, Cc1ccccc1OCC(=O)Nc1ccc(-c2nc3ccccc3o2)cc1 -17.4%, Cn1c(=O)[nH]c(=O)c2c1nc(N1CCOCC1)n2Cc1ccccc1 -9.27%, Cc1ccc(NC(=O)c2nc(S(C)(=O)=O)ncc2N(Cc2ccc(C(C)(C)C)cc2)Cc2ccco2)cc1C -9.88%, O=S(=O)(c1ccc(OC(F)(F)F)cc1)N1CCC(c2nnnn2-c2ccc(F)cc2)CC1 1.28%, CN(C(=O)CCc1nc(-c2ccccc2F)no1)c1ccc(Cl)cc1 -11.1%, COc1ccc(-c2noc(CSCC(=O)Nc3cc(OC)c(OC)c(OC)c3)n2)cc1OC -4.93%, CCn1cc(C(=O)OCC(=O)Nc2ccc(C)c(Cl)c2)c(=O)c2ccc(C)nc21 -15.7%, CCN1CCSc2ccc(C(=O)NCc3ccc(OC(C)C)cc3)cc21 -10.4%, CCOc1ccc(-c2cc3c(=O)n(CC(=O)NCc4ccc(C)cc4)ccn3n2)cc1 -13.5%, COc1cc(C(=O)NCC(c2ccc3c(c2)OCO3)N2CCOCC2)cc(OC)c1OC (stereo not given) -19.3%, CCCC(O)c1nc2ccccc2n1CCCOc1ccc(Cl)cc1 (stereo not given) -34%, CCc1cccc(NC(=O)C2CCCN(c3ncnc4onc(-c5ccc(F)cc5)c34)C2)c1 (stereo not given) -6.6%, CC(=O)N1c2ccccc2CC1C(=O)N1CCN(c2ccccc2)CC1 (stereo not given) -0.92%, Cc1ccc(NC(=O)c2c(C)cc(C)nc2SCC(=O)Nc2ccc(Br)cc2)cc1 -11.2%, COc1ccc(N(Cc2cc3ccccc3[nH]c2=O)C(=O)c2cccc(Cl)c2)cc1 -3.43%, CCOC(=O)Cc1ccc(NC(=O)NCc2c(-n3cccc3)sc3c2CCCC3)cc1 -9.11%, CCCCN1CC(c2nc3ccccc3n2CCCCOc2cc(C)ccc2C)CC1=O (stereo not given) -30.2%, O=C(CS(=O)(=O)c1cccc2nsnc12)Nc1ccccc1Cl -13.4%, CCc1nc2ccc(C(=O)NCCc3ccccc3OC)cc2nc1CC -20.6%, CC1CCCN(C(=O)c2cc3ccc4cccnc4c3[nH]2)C1 (stereo not given) -14.2%, CCOc1ccc(N2CC(NC(=O)c3ccco3)CC2=O)cc1 (stereo not given) -9.69%, Cc1cc2nc(-c3cccc(NC(=O)c4cccc5ccccc45)c3)oc2cc1C 25.7%, Cc1cccc(OCC(=O)Nc2cccc(OCc3cc(=O)n4cccc(C)c4n3)c2)c1 3.6%, O=C(/C=C/c1ccccc1)Nc1cc(-c2nc3cc(Cl)ccc3o2)ccc1Cl -5.64%, CCSc1ncc(Cl)c(C(=O)N2CCN(c3ccccc3OC)CC2)n1 -14.5%, CCOCCCNC(=O)c1ccc(-n2c(-c3ccccc3)cc3c2CCCC3)cc1 -18.6%, CCCCNC(=O)c1ccc2c(c1)N(Cc1ccc(F)cc1)C(=O)c1ccccc1S2=O (stereo not given) 0.746%, COc1cccc(-n2ccnc2SCC(=O)Nc2c(C)cc(C)cc2C)c1 -19.7%, Cc1cc(C)c(NC(=O)Cn2c(=O)c3cccn3c3ccccc32)c(C)c1 -8.4%, COc1ccc(Cn2ccc3nc(C)c(C(=O)Nc4ccc(OC)cc4)cc3c2=O)cc1 -8.79%, COc1ccc(CNC(=O)C2CCN(S(=O)(=O)c3c(C)noc3/C=C/c3ccccc3F)CC2)cc1 1.48%, Cc1cccc(C(=O)OCc2cc(=O)n3ccsc3n2)c1 -1.48%, CC(C(=O)NCCSCc1cccc(Cl)c1)N(c1ccccc1)S(C)(=O)=O (stereo not given) -30.9%, CC(=O)Nc1nc2n(n1)C(c1ccc(F)cc1)C=C(c1ccc(Cl)cc1)N2 (stereo not given) -13.4%, COc1ccc(CCNC(=O)CCn2c(=O)c3ccccc3n(Cc3ccccc3F)c2=O)cc1OC 6.64%, Cc1ccc(-n2c(C)cc(C(=O)C(=O)Nc3ccccc3)c2C)c(C)c1 -16.8%, O=C(CSc1nc2c([nH]c3ccccc32)c(=O)n1-c1ccc(Cl)cc1)N1CCc2ccccc21 2.1%, CSc1cccc(NC(=O)c2cnn(-c3ccc(F)cc3)c2-n2cccc2)c1 0.748%, Cc1ccc(-c2nc3c(c(SCc4ccc(Br)cc4)n2)Cc2c(CO)cnc(C)c2O3)cc1 -8.35%, CC(=O)OCC(COC(C)=O)OC(C)=O -15.2%, O=C(Cn1ncn2c(cc3sccc32)c1=O)NCCc1ccccc1 -15.2%, COc1ccc(CCNC(=O)CCc2c(C)c3cc4c(C)c(C)oc4cc3oc2=O)cc1OC -1.95%, Cc1ccc2c(=O)cc(C(=O)Nc3ccc(S(=O)(=O)N(C)c4ccccc4)cc3)oc2c1C -10.3%, CC(C)(C)OC(=O)N1CCC(c2c(C(=O)NCc3ccccc3)cnn2-c2cccc(F)c2)CC1 -15%, CCOc1ccccc1NC(=O)CSc1nnc2[nH]c(=O)cc(C)n12 -12.6%, Cc1cc(O)c(C(c2ccccc2)N2CCCCC2)c(=O)n1Cc1ccco1 (stereo not given) 0.129%, CCCCn1cc(S(=O)(=O)c2ccc(C)cc2)c(=O)c2cc(F)c(N3CCCCC3)cc21 -5.09%, COc1ccccc1-c1nc2n(n1)C(c1ccccc1Cl)C(C(=O)Nc1cccnc1)=C(C)N2 (stereo not given) -10.7%, CC(=O)N1c2ccccc2C(=O)C1N1CCN(c2ccccc2F)CC1 (stereo not given) -6.37%, CCC(C(=O)Nc1cccc(Cl)c1C)n1nc(C)c2sc3ccccc3c2c1=O (stereo not given) -8.49%, COc1ccc(-c2noc(CN(C)S(=O)(=O)c3c(C)cc(C)cc3C)n2)cc1OC -13.1%, COc1ccc(C)cc1NC(=O)c1ccc(NS(=O)(=O)c2c(C)noc2C)cc1 -14.2%, Cc1ccc(-c2nc(CCNC(=O)c3ccc(C)c(C)c3)cs2)cc1 16.6%, CCOC(=O)c1cnc2cc(C(F)(F)F)ccc2c1Nc1cc(C)ccc1OC -35.6%, CCOC(=O)c1ccc(NC2=CC(c3ccc(OCC)cc3)N(c3ccc(C(=O)OCC)cc3)C2=O)cc1 (stereo not given) -12.2%, Cc1ccc(S(=O)(=O)c2c(O)cc(C)c(NS(=O)(=O)c3ccc(Br)cc3)c2C)cc1 -24.7%, CCSc1nn(CC(=O)Nc2cccc(CC)c2)c(N)c1S(=O)(=O)c1ccccc1 -29.8%, Cc1oc(-c2ccc(Cl)cc2)nc1CN1CCCC(C(=O)NCCc2ccc(Cl)cc2)C1 (stereo not given) -10.2%, COCCCNC(=O)C1CCN(Cc2cc3ccccc3n2Cc2ccccc2C)CC1 -3.31%, O=C(CSc1nnc(-c2ccccc2Cl)o1)N1CCCc2ccccc21 -10.8%, CCCCCN(CCCOC)C(=O)C(CCC(=O)O)NC(=O)c1ccc(Cl)c(Cl)c1 (stereo not given) -17.2%, COc1ccc(NC(=O)c2c(NCc3cccs3)sc3c2CCC(C)C3)c(OC)c1 (stereo not given) -16%, CC(=O)N1CCc2cc(Br)cc(S(=O)(=O)CCC(=O)N3CCN(c4ccc(F)cc4)CC3)c21 1.36%, Cc1c(C(=O)N(Cc2ccccc2F)C2CCS(=O)(=O)C2)oc2ccccc12 (stereo not given) -13%, CCOc1ccc(C(=O)c2cn(CC(=O)Nc3ccc(Cl)cc3)c3cc4c(cc3c2=O)OCO4)cc1 -6.43%, COc1ccc(-c2nnc(SCC(=O)Nc3cccc(C(F)(F)F)c3)s2)cc1 -33.8%, COc1ccc(S(=O)(=O)NCC(c2cccs2)S(=O)(=O)c2ccccc2)cc1OC (stereo not given) -3.5%, Cc1nn(C)c2c1c(C(F)(F)F)cc(=O)n2C(C)C(=O)Nc1ccccc1F (stereo not given) -27.9%, COc1cc(/C=C/c2nc(C#N)c(N3CCN(C)CC3)o2)cc(OC)c1OC -7.23%, Cc1ccc(CN2CCC(CNC(=O)c3cnn(-c4ccccc4Cl)c3C3CCN(C(=O)OC(C)(C)C)CC3)CC2)cc1 -11.6%, CSc1cccc(NC(=O)C2CCN(c3nc4ccccc4[nH]3)CC2)c1 -8.68%, Cc1ccc(Cn2c(SCc3ccc(C(=O)NC4CCCCC4)cc3)nc3ccncc32)cc1 -8.96%, COc1ccc(Cl)c2sc(NC(=O)c3ccc(S(=O)(=O)N4CCOCC4)cc3)nc12 -16.9%, CCc1ccc(NC(=O)Cn2c(=O)n(-c3ccc(Cl)c(Cl)c3)c(=O)c3c(C)c(C)sc32)cc1 -4.74%, Cc1c(-c2nc(-c3ccccc3)no2)nnn1-c1ccc(F)c(Cl)c1 -17.3%, COc1cccc(NS(=O)(=O)c2ccc3c(c2)n(C)c(=O)n3C)c1 -12.4%, COc1ccc(NC(=O)COCc2cc(-c3ccc4c(c3)OCO4)on2)cc1 -4.26%, CN(C(=O)c1ccc2c(c1)N(Cc1cccc(Cl)c1)C(=O)c1ccccc1S2(=O)=O)C1CCCCC1 -18.6%, CCOC(=O)C(CC)n1nnc2sc(-c3ccccc3)cc2c1=O (stereo not given) -11.2%, CC(=O)c1cccc(NC(=O)CSc2nnc3ccc(-c4ccc(Br)cc4)nn23)c1 -12.2%, O=C(NCCS(=O)(=O)N1CCN(c2ccc(F)cc2)CC1)C(c1ccccc1)c1ccccc1 -18.7%, Fc1ccc(C(c2nnc(-c3ccccc3)o2)N2CCN(c3cccc(Cl)c3)CC2)cc1 (stereo not given) -5.62%, CCc1ccccc1NC(=O)CSc1nncn2c1cc1oc(C)cc12 -15.8%, CCOc1ccc(NC(=O)CSc2cn(CCNC(=O)c3ccccc3F)c3ccccc23)cc1 -6.7%, Cn1c2ccccc2c2cnn(CC(=O)NCCCN3CCCCC3)c(=O)c21 -10.2%, COc1ccc(CN2C(=O)C(NC(=O)c3cccc(C)c3)(C(F)(F)F)N=C2c2ccccc2)cc1 (stereo not given) -3.28%, Cc1ccc(CNC(=O)CSc2nc3c(sc4ccccc43)c(=O)n2CCCOC(C)C)cc1 -6.45%
